# Reference: PubChem BioAssay AID624296 (National Center for Advancing Translational Sciences (NCATS), 2012)
# The whole screen tested about 350,000 compounds, of which about 9,900 (2.8%) were called active. Inconclusive means that the source gave no clear call. Such entries were picked first, then a sample of the others. The call rests on the fitted dose curve; in most records, active means well fitted activation curve with a large enough effect; inconclusive means small, poorly fitted or top-dose-only effect; inactive means no such curve, though single readings can be large or run the other way. No potency is given beside an inconclusive call; the fits are too rough.
# Experiment: A quantitative high throughput screen for small molecules that induce DNA re-replication in MCF 10a normal breast cells. Further: nearly all actives have a fitted effect of over 50% in size.
# Conditions: MCF 10A DNA re-replication, Hoechst nuclear intensity, 48 h; series mostly up to 46.1 µM
# Potency means the concentration at half of the fitted maximal effect; tags describe the fitted curve by direction and shape.
row,Compound,Potency
1,CCOC(=O)c1c(NC(=O)c2ccco2)sc2c1CCCCC2,"inconclusive [activator, single point]"
2,CC(C)Cc1nc(N2CCN(C(=O)c3ccco3)CC2)c(C#N)c2c1CCC2,active: 20.6 µM
3,O=C(Cc1ccc(O)cc1)N/N=C/c1cccnc1,inactive
4,CC1CC(C)CN(S(=O)(=O)c2ccc(C(=O)N3CCN(c4ccccc4)CC3)cc2)C1 (configuration not stated),inactive
5,O=C(COC(=O)/C=C/c1ccccc1[N+](=O)[O-])NCC(F)(F)F,inactive
6,O=C(/C(=C\c1ccccc1)c1nc2ccccc2[nH]1)c1ccc(Cl)cc1,active: 4.11 µM
7,CC(C)(C)c1ccc(C(=O)NNC(=O)CCc2ccccc2)cc1,"inconclusive [activator, single point]"
8,CN1CCN(C2CCN(S(=O)(=O)c3ccc(C(C)(C)C)cc3)CC2)CC1,"inconclusive [activator, full curve, poor fit]"
9,Cc1cccc(C2=N/C(=C\c3cccnc3)C(=O)O2)c1,"inconclusive [activator, partial curve, poor fit]"
10,COc1ccccc1CN1CN(S(=O)(=O)c2ccccc2)c2nc3ccccc3nc21,"inconclusive [activator, partial curve, poor fit]"
11,CCOC(=O)c1cc2c(ccn2C)n1Cc1ccc(Cl)cc1,"inconclusive [activator, single point]"
12,O=C(Nc1cccc(-n2cccn2)c1)C1CCCN(Cc2ccccc2F)C1 (configuration not stated),inactive
13,CCC(C)Oc1ccc(/C=C/c2[nH]c(=O)[nH]c(=O)c2[N+](=O)[O-])cc1OC (configuration not stated),"inconclusive [activator, single point]"
14,CCOC(=O)c1cnc2ccc(C)cc2c1Sc1ccccc1,"inconclusive [activator, single point]"
15,CSc1nc2c(c(=O)[nH]c(=O)n2C)n1C/C=C(\C)Cl,"inconclusive [activator, full curve, poor fit]"
16,O=C1CC(NS(=O)(=O)c2ccccc2F)CN1c1ccc2c(c1)OCCO2 (configuration not stated),inactive
17,CN1CCN(S(=O)(=O)c2ccc(NC(=S)NC(=O)C3CCCC3)cc2)CC1,"inconclusive [activator, single point]"
18,CCC(=O)Nc1ccc(-c2cc(-c3ccccc3)nc(-c3ccc(NC(=O)CC)cc3)n2)cc1,"inconclusive [activator, partial curve, poor fit]"
19,Cc1nc2nc(C)c(NS(=O)(=O)c3ccc(CC(C)C)cc3)c(=O)n2[nH]1,inactive
20,CC(C)CNC(=O)c1cc2nc3c(c(C(F)(F)F)n2n1)CCc1ccccc1-3,inactive
21,COc1ccccc1Nc1nc(Cl)nc(Nc2ccccc2OC)n1,"inconclusive [activator, partial curve, poor fit]"

row,Compound,Potency
1,CCOC(=O)CNC(=O)CSc1nnc(CCc2nc3ccccc3[nH]2)n1C,inactive
2,COc1ccc(CNC(=O)c2c(-c3cc(Cl)c(OC)c(Cl)c3)noc2C)cc1,"inconclusive [activator, single point]"
3,O=C(/C=C/NNC(=O)c1cccc(Br)c1)c1cccc(Br)c1,"inconclusive [activator, single point]"
4,COc1ccc(/C=C/C(=O)NC(=S)NNC(=O)Cc2cccs2)cc1,"inconclusive [activator, single point]"
5,Cc1cc(F)ccc1NC(=O)C1CCN(C(=O)Nc2ccccc2)CC1,"inconclusive [activator, single point]"
6,Cc1cc(NC(=O)CCCS(=O)(=O)c2nc(-c3cccs3)cc(C(F)(F)F)n2)no1,active: 4.11 µM
7,Nc1ccccc1N=Cc1ccc(-c2cccc(Cl)c2)o1,"inconclusive [activator, single point]"
8,COc1ccc(C(Sc2ccccc2)c2ccccc2)cc1OC (configuration not stated),"inconclusive [activator, full curve, poor fit]"
9,O=C1COc2ccc(C(=O)COC(=O)c3cc(S(=O)(=O)NCc4ccccc4)ccc3O)cc2N1,"inconclusive [activator, single point]"
10,O=S(=O)(NCc1cccnc1)c1ccc(Cl)c(Cl)c1Cl,"inconclusive [activator, partial curve, poor fit]"
11,COc1ccc(S(=O)(=O)N2CCOCC2)cc1NC(=O)CN1CCC(Cc2ccccc2)CC1,"inconclusive [activator, single point]"
12,CC1=CC(C)(C)Nc2ccc(OC(=O)C(Cc3ccccc3)N3C(=O)C4CCCCC4C3=O)cc21 (configuration not stated),"inconclusive [activator, single point]"
13,COC(=O)c1cc(Sc2cccc(Cl)c2Cl)ccn1,"inconclusive [activator, partial curve, poor fit]"
14,COc1cc(SC)ccc1C(=O)NCCc1c[nH]c2ccccc12,"inconclusive [activator, single point]"
15,O=C(NCc1ccco1)c1sc2cc(Cl)ccc2c1Cl,"inconclusive [activator, full curve, poor fit]"
16,FC(F)(F)c1cccnc1Oc1ccc(C2=NCCS2)cc1,"inconclusive [activator, single point]"
17,O=C(NNC1CC(=O)N(c2ccc(Br)cc2)C1=O)c1cccs1 (configuration not stated),"inconclusive [activator, partial curve, poor fit]"
18,Cc1ccc(OCCCNCCO)c(Br)c1,"inconclusive [activator, partial curve, poor fit]"
19,CC(C)(C)c1ccc(S(=O)(=O)Nc2ccccn2)cc1,inactive
20,CN(Cc1cc([N+](=O)[O-])ccc1Cl)C(=O)C[n+]1ccccc1,"inconclusive [activator, partial curve, poor fit]"
21,O=C1[C@H]2[C@@H](c3ccc(F)cc3)N3C(=O)N(c4cccc(F)c4)C(=O)[C@@]3(Cc3ccc(Cl)cc3)[C@H]2C(=O)N1C1CCCCC1,"inconclusive [activator, partial curve, poor fit]"
